Laboratory results reported in PubChem BioAssay AID488969 (Vanderbilt High Throughput Screening Facility, 2010).
Over roughly 110,000 compounds, “z-score” has its median near -0.1; the highest 2% begin near 2. This is one part of the list. Calls of active or inactive are those of the source.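 How the source made its calls: active means z-score in the third read window above 3 or below -3; inactive means the rest.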

These molecules were tested against Metabotropic glutamate receptor 8 (Rattus norvegicus) (UniProt P70579) (assay: rat mGluR8 modulators via GIRK flux, primary screen, cell-based, thallium flux, HTS (AID 488969)). Conditions: HEK293 rat mGluR8, GIRK (G protein-gated inwardly rectifying potassium channel) thallium flux, FluoZin2; at 10 µM; stronger effect = higher value; submaximal glutamate (EC20) added with thallium.
UniProt P70579, sequence (P70579 whole entry, looked up): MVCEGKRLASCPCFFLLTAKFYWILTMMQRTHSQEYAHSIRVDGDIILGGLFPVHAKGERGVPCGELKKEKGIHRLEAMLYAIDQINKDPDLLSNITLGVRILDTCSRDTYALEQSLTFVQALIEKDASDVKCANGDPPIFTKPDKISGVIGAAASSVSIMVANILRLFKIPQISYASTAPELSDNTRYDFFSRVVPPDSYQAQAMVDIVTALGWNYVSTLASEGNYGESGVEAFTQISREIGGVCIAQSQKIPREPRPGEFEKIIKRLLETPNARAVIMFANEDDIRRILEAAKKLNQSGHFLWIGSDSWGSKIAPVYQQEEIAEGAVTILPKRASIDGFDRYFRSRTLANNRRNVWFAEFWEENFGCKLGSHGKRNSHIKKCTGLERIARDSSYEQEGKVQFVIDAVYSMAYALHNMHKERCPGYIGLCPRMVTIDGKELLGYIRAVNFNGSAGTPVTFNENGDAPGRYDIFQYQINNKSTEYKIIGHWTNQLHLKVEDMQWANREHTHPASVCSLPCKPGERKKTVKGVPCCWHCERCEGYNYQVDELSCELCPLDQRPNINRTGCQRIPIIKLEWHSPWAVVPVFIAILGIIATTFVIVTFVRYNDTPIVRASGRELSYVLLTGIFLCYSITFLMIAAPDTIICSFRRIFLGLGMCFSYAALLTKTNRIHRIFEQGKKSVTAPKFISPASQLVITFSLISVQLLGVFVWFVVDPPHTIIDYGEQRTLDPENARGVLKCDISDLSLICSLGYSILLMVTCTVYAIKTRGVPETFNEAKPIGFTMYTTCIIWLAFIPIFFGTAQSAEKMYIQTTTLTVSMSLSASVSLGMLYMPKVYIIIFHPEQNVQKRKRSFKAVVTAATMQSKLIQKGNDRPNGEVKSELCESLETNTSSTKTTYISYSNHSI

SMILES | z-score
CC(=O)N1CCN(S(=O)(=O)c2ccc(C)cc2)C1C(C)C (stereo unspecified) | -0.000634
Cc1cc(C)n(-c2ccc(C(=O)Nc3cccc(S(=O)(=O)N(C)C)c3)cc2)n1 | -0.289
CCCn1nc2cc(C(=O)NCCCCc3ccccc3)ccc2c1OCC | -0.11
CN(C)c1nc(C(=O)OCCO)nc(N(C)C)n1 | 0.0154
Cc1cc(-n2nc(C)cc2C)n2nc(C)c(-c3ccccc3)c2n1 | -0.828
Cc1nn(-c2ccccc2)c(Cl)c1/C=N/NC(=O)c1cccc(S(=O)(=O)N2CCCC2)c1 | -0.295
N/C(=N\OC(=O)c1cc(-c2ccccc2)nc2ccccc12)c1ccncc1 | 0.337
COc1cc(CNC2CCCCCC2)cc(OC)c1O | 0.176
COc1ccc(S(=O)(=O)N(C)CC(=O)O)c2ccccc12 | 0.343
CCOC(=O)c1sc(NC(=O)C2CCCO2)c(C(=O)OC)c1C (stereo unspecified) | 0.0155
Cc1cc(C)cc(Oc2ccccc2C=O)c1 | -0.314
Cc1ccc(S(=O)(=O)NCc2ccc(C(=O)N3CCc4ccccc4C3)cc2)cc1 | -0.264
C=C(C)CN(CC)c1nc(N)c(C#N)c(CC#N)c1C#N | 0.635
Cc1ccc(-n2nnnc2SCc2nc3sc(C)c(C)c3c(=O)[nH]2)cc1 | -0.532
CCCCC1(O)CC(C(F)(F)F)=NN1C(=O)COc1ccccc1 (stereo unspecified) | 0.45
COc1ccc(N2CCN(c3oc(Cc4cccc5ccccc45)nc3C#N)CC2)cc1 | 0.294
Cc1ncc([N+](=O)[O-])n1CC(=O)NC1CCCCC1 | -0.154
COc1ccc2c(C)cc(=O)[nH]c2c1 | -0.159
COc1ccc(S(=O)(=O)NNC(=O)c2cc3cc4ccccc4nc3s2)cc1 | -2.35

SMILES | z-score
Cc1ccc(S(=O)(=O)Nc2cc(Cl)c(O)cc2C)cc1 | 0.213
COCC(=O)Nc1cccc2ccccc12 | 0.3
CCOc1ccc(-c2nc(-c3ccccc3)no2)cc1OCC | 1.62
COC(=O)COc1ccc(S(=O)(=O)NCCC2=CCCCC2)cc1Cl | -0.401
COc1cccc(C(C)NC(=O)Nc2cccc(C(F)(F)F)c2)c1 (stereo unspecified) | -0.856
S=C(Nc1ccc(Cl)c(Cl)c1)N1CCOCC1 | 0.263
COc1cccc(CN(C)C(=O)c2ccc(S(=O)(=O)N3CCCC3)cc2)c1OC | -0.0592
COc1ccc(S(=O)(=O)NCc2csc(-c3cccnc3)n2)cc1 | -0.168
Cc1cccc(/C=N\Nc2nnc(-c3ccccc3)c(=O)[nH]2)c1 | -0.000414
Cc1ccc(S(=O)(=O)NNC(=O)c2cc3cc4ccccc4nc3s2)cc1 | 0.00914
C(#CCN1CCOCC1)COCCOC(c1ccccc1)c1ccccc1 | -0.257
S=C(NCc1ccc(Cl)cc1)NC12CC3CC(CC(C3)C1)C2 | 0.029
CCOC(=O)c1c(N)ssc1=S | 0.129
CNCCCCOc1ccccc1-c1ccccc1 | -0.0928
O=C(NC1CCCC1)C(c1ccsc1)N(CCc1ccccc1)C(=O)Cc1cccs1 (stereo unspecified) | -0.222
CCC(=O)NCCc1nc2ccccc2n1Cc1ccccc1 | -0.29
Cc1ccc(C(=O)Nc2ccc(O)cc2C(=O)O)cc1 | -0.517
CCc1ccccc1NC(=O)CSc1nc2c(c(-c3ccco3)c1C#N)CCCC2 | 0.16
O=[N+]([O-])c1ccc(O)c(C=Nc2ccc3c(c2)OCCO3)c1 | 0.193

SMILES | z-score
O=C(O)C1C2C=CC(C2)C1C(=O)Nc1nccs1 (stereo unspecified) | -0.306
C=CCOn1c(=O)c(-c2ccc(OC)cc2)[n+]([O-])c2ccccc21 | -0.0769
Cc1cccc(N2C(=O)CS/C2=N\NC(=O)c2ccc(Cl)cc2)c1C | active: 3.96
CCn1c(SCC(=O)c2ccc(NC(C)=O)c(OC)c2)nnc1-c1ccc(NS(C)(=O)=O)cc1 | -0.0548
CCOc1ccc(-c2ccc(SCC(=O)N3CCN(c4ccccc4)CC3)nn2)cc1 | -0.0827
CC(=O)N/C(=C\c1ccccc1)C(=O)NCC(=O)O | -0.256
Cc1ccc(OCCN2C(=O)S/C(=C\c3ccc(C)o3)C2=O)cc1 | -0.112
COc1ccc(NC(=O)C(CC(C)C)NS(=O)(=O)c2ccc3c(c2)CCN3C(C)=O)cc1OC (stereo unspecified) | 0.312
Cc1ccc(CC2CC(=O)N(c3ccc4c(c3)OCCO4)C2=O)cc1 (stereo unspecified) | 0.11
CCn1nnnc1SCC(=O)Nc1cccc(NC(C)=O)c1 | 0.0385
Cc1cc(Cl)ccc1NC(=S)NCc1ccco1 | -0.137
CSCCC(NC(=O)c1ccco1)C(=O)NCc1ccc(F)cc1 (stereo unspecified) | -0.632
CC(=O)Nc1ccc(Sc2ncccc2C(=O)Nc2cc(Cl)cc(Cl)c2)cn1 | 0.0331
COc1ccc(C(=O)NNC(=O)CN2CCC(n3nnc4cc(C(F)(F)F)ccc43)CC2)cc1 | 0.177
CCN(CC)CCN1C(=O)C(=O)/C(=C(/O)c2ccccc2)C1c1ccccc1F (stereo unspecified) | 1.55
COc1ccccc1OCC(=O)NCc1cccs1 | -0.509
CCOC(=O)c1c(N)nn(C(=O)C(C)C)c1-c1ccc(OC)cc1 | -0.515
COc1cccc(NC(=O)CNC(=O)c2ccccc2)c1 | -0.0963
